Data from the antibiotic and cytotoxicity screens of Wong et al. (2023).
Some of the results follow.

Test system: HSkMC (human skeletal muscle cells)
Assay: cytotoxicity call (relative viability < 0.9)
Conditions: 10 µM

| Structure (SMILES) | cytotoxicity call |
| --- | --- |
| C[C@H](CO)N1C[C@H](C)[C@@H](CN(C)Cc2ccc(C(=O)O)cc2)OCCCC[C@H](C)Oc2ccc(NS(=O)(=O)c3ccc(Cl)cc3)cc2C1=O | inactive |
| COc1ccc(CN(C)C[C@@H]2OCCCC[C@@H](C)Oc3ccc(NC(=O)CCC(F)(F)F)cc3C(=O)N([C@@H](C)CO)C[C@H]2C)cc1 | inactive |
| COC(=O)[C@@H](N)c1cccc(Cl)c1 | inactive |
| C[C@@H]1CN([C@@H](C)CO)C(=O)Cc2cc(NS(C)(=O)=O)ccc2O[C@@H]1CN(C)C(=O)Nc1ccc(F)cc1 | inactive |
| C[C@@H]1CN([C@@H](C)CO)C(=O)c2cc(NC(=O)CCC(F)(F)F)ccc2O[C@@H]1CN(C)Cc1ccc(C(=O)Nc2ccccc2N)cc1 | inactive |
| C[C@@H](C(=O)N(C)C[C@@H]1OCc2ccccc2-c2c(n(C)c3ccccc23)C(=O)N([C@@H](C)CO)C[C@@H]1C)c1ccccc1 | inactive |
| C[C@@H]1CN([C@H](C)CO)C(=O)c2cc(NC(=O)CCCCCC(=O)Nc3ccccc3N)ccc2O[C@@H]1CN(C)C(=O)Nc1ccccc1 | inactive |
| C1CCC(C(CC2CCCCN2)C2CCCCC2)CC1.O=C(O)C=CC(=O)O (stereo not drawn) | active |

Test system: HepG2
Assay: cytotoxicity call (relative viability < 0.9)
Conditions: 10 µM

| Structure (SMILES) | cytotoxicity call |
| --- | --- |
| Cc1ccc(-c2ccc3c(c2)O[C@H](CN(C)C(=O)NC(C)C)[C@@H](C)CN([C@H](C)CO)S3(=O)=O)cc1 | inactive |
| CC#CCOC(=O)C1=CCCN(C)C1 | inactive |
| C[C@H](CO)N1C[C@H](C)[C@@H](CN(C)S(=O)(=O)c2ccc(Cl)cc2)OCCCC[C@H](C)Oc2ccc(NC(=O)c3ccccc3)cc2C1=O | inactive |
| C[C@H](CO)N1C[C@H](C)[C@@H](CN(C)Cc2ccc(Oc3ccccc3)cc2)Oc2c(NC(=O)c3ccc(-c4nccs4)cc3)cccc2C1=O | inactive |
| C[C@@H]1CN([C@@H](C)CO)C(=O)Cc2cc(NC(=O)Nc3ccc(C(F)(F)F)cc3)ccc2O[C@@H]1CN(C)Cc1ccc(C(F)(F)F)cc1 | active |
| C=CC1=C(C(=O)O)N2C(=O)[C@@H](NC(=O)/C(=N\O)c3csc(N)n3)[C@H]2SC1 | inactive |
| O=C(CN1CCOCC1)N[C@@H]1CC[C@H](CCNC(=O)Nc2cc(F)ccc2F)O[C@H]1CO | inactive |
| C[C@H](CO)N1C[C@H](C)[C@H](CN(C)C(=O)Nc2ccc(F)cc2)OCc2ccccc2-c2ccccc2C1=O | inactive |
| NC1CONC1=O (stereo not drawn) | inactive |
| COc1ccc(S(=O)(=O)N(C)C[C@@H]2OCCCC[C@@H](C)Oc3ccc(NC(=O)Nc4ccccc4)cc3C(=O)N([C@H](C)CO)C[C@H]2C)cc1 | inactive |
| CC(C)N1C[C@@H](CN(C)Cc2ccc(Cl)c(Cl)c2)Oc2c(NC(=O)c3ccncc3)cccc2C1=O | inactive |
| C[C@H]1CCCCO[C@H](CN(C)Cc2ccc(C(F)(F)F)cc2)[C@@H](C)CN([C@@H](C)CO)C(=O)c2cc(NS(=O)(=O)c3cccs3)ccc2O1 | inactive |
| C[C@H](CO)N1C[C@H](C)[C@@H](CN(C)Cc2ccc(C(F)(F)F)cc2)OCCCC[C@H](C)Oc2ccc(NC(=O)NC3CCCCC3)cc2C1=O | active |
| C[C@H](CO)N1C[C@H](C)[C@@H](CN(C)C(=O)C2CCC2)Oc2cc(-c3ccc(C(=O)N(C)C)cc3)ccc2S1(=O)=O | inactive |
| C[C@H](CO)N1C[C@H](C)[C@@H](CN(C)Cc2ccncc2)Oc2c(NC(=O)C3CCOCC3)cccc2C1=O | inactive |
| Nc1ccc(S(=O)(=O)Nc2ccc(Cl)nn2)cc1 | inactive |
| O=C(CN1CCOCC1)NCC[C@@H]1CC[C@@H](NC(=O)Cc2ccccn2)[C@H](CO)O1 | inactive |
| C[C@@H]1CN([C@H](C)CO)C(=O)c2cccc(NS(C)(=O)=O)c2O[C@@H]1CN(C)C(=O)NC1CCCCC1 | inactive |
| C[C@H]1CCCCO[C@@H](CN(C)Cc2ccncc2)[C@@H](C)CN([C@@H](C)CO)C(=O)c2cc(NC(=O)Nc3cccc4ccccc34)ccc2O1 | inactive |
| Cc1noc(C)c1NC(=O)Nc1ccc2c(c1)CC(=O)N([C@@H](C)CO)C[C@H](C)[C@@H](CN(C)S(=O)(=O)c1ccccc1)O2 | inactive |

| Structure (SMILES) | cytotoxicity call |
| --- | --- |
| Cc1ccc(S(=O)(=O)N(C)C[C@H]2Oc3ccc(NC(=O)Cn4cnnn4)cc3CC(=O)N([C@H](C)CO)C[C@@H]2C)cc1 | inactive |
| C[C@@H]1CN([C@H](C)CO)C(=O)Cc2cc(NC(=O)CCC(F)(F)F)ccc2O[C@@H]1CN(C)S(=O)(=O)c1cn(C)cn1 | inactive |
| COc1ccc2c3c([nH]c2c1)[C@@H](CO)N(Cc1cc(ccc1F)F)C[C@]13CCN(CC1)C(=O)CN(C)C | inactive |
| C[C@@H]1CN([C@@H](C)CO)C(=O)c2cc(NC(=O)NC3CCCCC3)ccc2O[C@@H]1CN(C)Cc1ccc(Oc2ccccc2)cc1 | active |
| CN(C)c1ccsc1C(=O)NN | inactive |
| Cn1c(=O)n(C)c2cc(CO)ccc21 | inactive |
| C[C@H](CO)N1C[C@H](C)[C@@H](CN(C)S(=O)(=O)c2ccc(Cl)cc2)Oc2ccc(NC(=O)CCN3CCOCC3)cc2C1=O | inactive |
| C[C@H](CO)N1C[C@H](C)[C@@H](CN(C)C(=O)Nc2ccc(C(F)(F)F)cc2)Oc2c(NC(=O)C3CCCCC3)cccc2C1=O | inactive |
| COc1ccc(S(=O)(=O)N(C)C[C@@H]2Oc3cc(C#CC4CCCC4)ccc3S(=O)(=O)N([C@@H](C)CO)C[C@H]2C)cc1 | inactive |
| C[C@H](CO)N1C[C@H](C)[C@H](CN(C)Cc2ccc(C(=O)O)cc2)Oc2ncc(C#CCN(C)C)cc2C1=O | inactive |
| C[C@H]1CN([C@@H](C)CO)C(=O)c2cc(NC(=O)Nc3ccc(F)cc3)ccc2O[C@H]1CN(C)Cc1ccc(Oc2ccccc2)cc1 | inactive |
| C[C@H](CO)N1C[C@H](C)[C@H](CN(C)C(=O)Nc2cccc3ccccc23)Oc2ccc(NS(=O)(=O)c3cccs3)cc2C1=O | inactive |
| C[C@H](CO)N1C[C@H](C)[C@@H](CN(C)Cc2ccc(C(=O)O)cc2)OCCCC[C@H](C)Oc2ccc(NS(=O)(=O)c3ccc(Cl)cc3)cc2C1=O | inactive |
| COc1ccc(CN(C)C[C@@H]2OCCCC[C@@H](C)Oc3ccc(NC(=O)CCC(F)(F)F)cc3C(=O)N([C@@H](C)CO)C[C@H]2C)cc1 | inactive |
| COC(=O)[C@@H](N)c1cccc(Cl)c1 | inactive |
| C[C@@H]1CN([C@@H](C)CO)C(=O)Cc2cc(NS(C)(=O)=O)ccc2O[C@@H]1CN(C)C(=O)Nc1ccc(F)cc1 | inactive |
| C[C@@H]1CN([C@@H](C)CO)C(=O)c2cc(NC(=O)CCC(F)(F)F)ccc2O[C@@H]1CN(C)Cc1ccc(C(=O)Nc2ccccc2N)cc1 | inactive |
| C[C@@H](C(=O)N(C)C[C@@H]1OCc2ccccc2-c2c(n(C)c3ccccc23)C(=O)N([C@@H](C)CO)C[C@@H]1C)c1ccccc1 | inactive |
| C[C@@H]1CN([C@H](C)CO)C(=O)c2cc(NC(=O)CCCCCC(=O)Nc3ccccc3N)ccc2O[C@@H]1CN(C)C(=O)Nc1ccccc1 | inactive |
| C1CCC(C(CC2CCCCN2)C2CCCCC2)CC1.O=C(O)C=CC(=O)O (stereo not drawn) | active |
